Source: PMC4329010
Results are given in words; binding and its absence hold for the method and conditions named. Binding seen in cells or lysates may run through a third protein. Some entries that bind do so weakly or less than the wild type. Sequences can lack the tags named with a protein. Blank lines part the entries; values can stand above or below the molecule they belong to.

Columns and labels:
[1] = biological target: T1, Flag-SNW1 (human) (UniProt Q13573); assay: co-IP; 293T cells constitutively expressing Flag tag or Flag-SNW1, immunoprecipitated with anti-Flag antibody, immunoblotted with antibodies for the endogenous proteins
T1 sequence: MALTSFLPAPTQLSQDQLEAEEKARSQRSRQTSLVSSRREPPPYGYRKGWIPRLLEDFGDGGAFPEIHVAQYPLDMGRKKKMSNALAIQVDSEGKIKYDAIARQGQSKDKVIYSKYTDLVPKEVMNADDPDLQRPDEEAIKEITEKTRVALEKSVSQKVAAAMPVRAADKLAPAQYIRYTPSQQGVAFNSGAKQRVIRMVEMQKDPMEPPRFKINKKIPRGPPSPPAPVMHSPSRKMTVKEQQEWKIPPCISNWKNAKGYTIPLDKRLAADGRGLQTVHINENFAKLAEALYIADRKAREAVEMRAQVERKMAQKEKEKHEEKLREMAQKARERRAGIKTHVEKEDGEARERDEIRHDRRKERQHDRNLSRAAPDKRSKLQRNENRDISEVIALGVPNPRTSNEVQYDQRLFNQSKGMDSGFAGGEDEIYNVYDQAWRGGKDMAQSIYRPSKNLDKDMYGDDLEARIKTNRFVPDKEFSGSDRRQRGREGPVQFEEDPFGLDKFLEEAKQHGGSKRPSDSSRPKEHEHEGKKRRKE

[2] = biological target: T1, Flag-SNW1 (human); assay: co-IP; 293T cells co-transfected with Flag- and GFP-tagged constructs, lysed after 24 h, immunoprecipitated with anti-Flag antibody, washed four times with lysis buffer, immunoblotted with anti-GFP antibody
[3] = biological target: T2, Flag-tagged EFTUD2-1-260 (human) (UniProt Q15029); assay: as above
T2 sequence: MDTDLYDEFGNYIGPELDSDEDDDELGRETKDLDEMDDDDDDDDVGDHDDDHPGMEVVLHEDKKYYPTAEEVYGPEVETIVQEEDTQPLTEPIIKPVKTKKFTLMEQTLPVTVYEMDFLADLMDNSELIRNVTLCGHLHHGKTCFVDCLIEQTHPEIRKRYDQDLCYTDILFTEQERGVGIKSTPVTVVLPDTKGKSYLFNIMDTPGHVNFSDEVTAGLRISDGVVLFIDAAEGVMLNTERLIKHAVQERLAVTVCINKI

[4] = biological target: T3, Flag-tagged full-length EFTUD2 (human) (UniProt Q15029); assay: as above
T3 sequence: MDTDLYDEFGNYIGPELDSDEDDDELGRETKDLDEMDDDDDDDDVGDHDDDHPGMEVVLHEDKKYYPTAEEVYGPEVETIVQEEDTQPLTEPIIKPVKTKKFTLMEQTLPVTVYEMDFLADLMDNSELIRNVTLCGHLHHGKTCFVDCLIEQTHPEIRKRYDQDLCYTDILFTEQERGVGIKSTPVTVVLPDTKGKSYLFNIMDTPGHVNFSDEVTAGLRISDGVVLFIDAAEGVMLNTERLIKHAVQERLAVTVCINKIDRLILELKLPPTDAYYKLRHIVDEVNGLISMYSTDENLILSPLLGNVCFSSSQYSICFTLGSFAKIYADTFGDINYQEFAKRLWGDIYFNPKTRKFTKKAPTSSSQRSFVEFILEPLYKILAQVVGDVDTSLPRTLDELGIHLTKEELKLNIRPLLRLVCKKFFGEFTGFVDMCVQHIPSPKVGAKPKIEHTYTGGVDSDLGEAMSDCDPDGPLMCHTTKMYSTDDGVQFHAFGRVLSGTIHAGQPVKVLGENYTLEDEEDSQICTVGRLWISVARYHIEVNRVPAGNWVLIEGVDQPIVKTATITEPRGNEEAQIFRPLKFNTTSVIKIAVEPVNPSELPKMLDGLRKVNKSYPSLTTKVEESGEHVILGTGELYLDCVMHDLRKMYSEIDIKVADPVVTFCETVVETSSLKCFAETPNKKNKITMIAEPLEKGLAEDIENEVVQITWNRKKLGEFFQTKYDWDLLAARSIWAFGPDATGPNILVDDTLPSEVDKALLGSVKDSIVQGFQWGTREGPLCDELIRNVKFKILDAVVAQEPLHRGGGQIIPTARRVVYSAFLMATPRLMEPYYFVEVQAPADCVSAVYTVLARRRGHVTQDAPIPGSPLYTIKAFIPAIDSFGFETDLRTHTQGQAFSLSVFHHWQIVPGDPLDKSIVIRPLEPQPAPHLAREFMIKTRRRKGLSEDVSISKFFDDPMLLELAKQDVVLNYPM

[5] = biological target: T4, GST-fused SNW1-174-335 (human) (UniProt Q13573); assay: pull-down; GST-fused SNW1-174-335 bound to glutathione agarose beads mixed with in vitro-translated HA-tagged proteins for 1 h, washed four times with lysis buffer, immunoblot; only the target purified
T4 sequence: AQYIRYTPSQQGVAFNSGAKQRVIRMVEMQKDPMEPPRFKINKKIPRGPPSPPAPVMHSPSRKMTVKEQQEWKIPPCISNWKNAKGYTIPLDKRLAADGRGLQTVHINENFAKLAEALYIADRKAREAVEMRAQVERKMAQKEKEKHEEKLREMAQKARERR

binding [1]: binds
Molecule: SNRNP200 (endogenous) (from UniProt O75643 1-2136)

binding [2]: binds | binding [3]: no binding | binding [4]: binds
Molecule: GFP-SNRNP200 (from UniProt O75643 1-2136)

binding [2]: binds
B1: GFP-EFTUD2-1-260 (domain or fragment, UniProt Q15029 1-260)
chain: T2 sequence

binding [5]: binds
B2: In vitro-translated HA-tagged EFTUD2-1-260 (domain or fragment, UniProt Q15029 1-260)
chain: T2 sequence

binding [2]: binds
B3: GFP-tagged SNRNP200 1287-1606 (domain or fragment, UniProt O75643 1287-1606)
chain: RHLILPEKYPPPTELLDLQPLPVSALRNSAFESLYQDKFPFFNPIQTQVFNTVYNSDDNVFVGAPTGSGKTICAEFAILRMLLQSSEGRCVYITPMEALAEQVYMDWYEKFQDRLNKKVVLLTGETSTDLKLLGKGNIIISTPEKWDILSRRWKQRKNVQNINLFVVDEVHLIGGENGPVLEVICSRMRYISSQIERPIRIVALSSSLSNAKDVAHWLGCSATSTFNFHPNVRPVPLELHIQGFNISHTQTRLLSMAKPVYHAITKHSPKKPVIVFVPSRKQTRLTAIDILTTCAADIQRQRFLHCTEKDLIPYLEKLSD

binding [5]: binds
B4: In vitro-translated HA-tagged SNRNP200 1287-1606 (domain or fragment, UniProt O75643 1287-1606)
chain: B3 chain

binding [2]: binds
B5: GFP-tagged SNRNP200 1607-2136 (domain or fragment, UniProt O75643 1607-2136)
chain: STLKETLLNGVGYLHEGLSPMERRLVEQLFSSGAIQVVVASRSLCWGMNVAAHLVIIMDTQYYNGKIHAYVDYPIYDVLQMVGHANRPLQDDEGRCVIMCQGSKKDFFKKFLYEPLPVESHLDHCMHDHFNAEIVTKTIENKQDAVDYLTWTFLYRRMTQNPNYYNLQGISHRHLSDHLSELVEQTLSDLEQSKCISIEDEMDVAPLNLGMIAAYYYINYTTIELFSMSLNAKTKVRGLIEIISNAAEYENIPIRHHEDNLLRQLAQKVPHKLNNPKFNDPHVKTNLLLQAHLSRMQLSAELQSDTEEILSKAIRLIQACVDVLSSNGWLSPALAAMELAQMVTQAMWSKDSYLKQLPHFTSEHIKRCTDKGVESVFDIMEMEDEERNALLQLTDSQIADVARFCNRYPNIELSYEVVDKDSIRSGGPVVVLVQLEREEEVTGPVIAPLFPQKREEGWWVVIGDAKSNSLISIKRLTLQQKAKVKLDFVAPATGAHNYTLYFMSDAYMGCDQEYKFSVDVKEAETDSDSD

binding [5]: binds
B6: In vitro-translated HA-tagged SNRNP200 1607-2136 (domain or fragment, UniProt O75643 1607-2136)
chain: B5 chain
